This is an account of results in the supplement of paper PMC12217912.

Sequences and labels used below:
B1: TEV protease; numbered along this chain (parent)
chain: MGESLFKGPRDYNPISSSICHLTNESDGHTTSLYGIGFGPFIITNKHLFRRNNGTLVVQSLHGVFKVKDTTTLQQHLVDGRDMIIIRMPKDFPPFPQKLKFREPQREERICLVTTNFQTKSMSSMVSDTSCTFPSGDGIFWKHWIQTKDGQCGSPLVSTRDGFIVGIHSASNFTNTNNYFTSVPKNFMELLTNQEAQQWVSGWRLNADSVLWGGHKVFMVKPEEPFQPVKEATQL

The variants in this test derive from B1. Kind of test: raw area under fraction-flipped curve 0-4 h after induction (AUC4h, not background-subtracted), DNA-recorder readout of cleavage of the substrate (dimensionless); higher = more cleavage of the substrate by the protease variant. Conditions: temperature: 34 °C; time window: 0-4 h after rhamnose induction. Here is the method:
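In vivo DNA recorder in E. coli TOP10(DE3) ΔrhaA at 34 °C. Each TEVp single-site mutant (parent TEVp 0) is paired with a single-site variant of the 7-mer TEVs (canonical ENLYFQ|S). The substrate sits between flexible linkers in a Bxb1-sfGFP-TEVs-SsrA fusion, so cleavage stabilises Bxb1 and speeds flipping of a recombination array, read by NGS. The value is the raw area under the fraction-flipped curve over 0-4 h after rhamnose induction (AUC4h), with ≥20 reads per time point. It is not background-subtracted; inactive controls average about 0.047.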

The other results are listed elsewhere or left out. Sequences were assembled here from the parent chain. Values near 0.05 are background.
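Also: Bxb1 expression induced with 0.2% (w/v) L-rhamnose at OD600 near 0.5, cultures sampled hourly, flipped fraction per protease–substrate barcode pair counted by paired-end Illumina sequencing.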

Regarding MGESLFKGPRDYNPISSSICHLTNESDGHTTSLYGIGFGPFIITNKHLFRRNNGTLVVQSLHGVFKVKDTTTLQQHLVDGRDMIIIRMPKDFPPFPQKLKFREPQREERICLVKTNFQTKSMSSMVSDTSCTFPSGDGIFWKHWIQTKDGQCGSPLVSTRDGFIVGIHSASNFTNTNNYFTSVPKNFMELLTNQEAQQWVSGWRLNADSVLWGGHKVFMVKPEEPFQPVKEATQL [T114K], the “area with substrate ECLYFQS” value stood at 0.118, the “area with substrate EELYFQS” value was found to be 0.0913, the “area with substrate EHLYFQS” value worked out at 0.101 and the “area with substrate EILYFQS” value is 0.106. Besides, the “area with substrate EKLYFQS” value was found to be 0.11, the “area with substrate EQLYFQS” value was 0.126, the “area with substrate ERLYFQS” value was 0.107 and the “area with substrate ESLYFQS” value amounted to 0.0871. Also, the “area with substrate EVLYFQS” value stood at 0.0954.
Turning to MGESLFKGPRDYNPISSSICHLTNESDGHTTSLYGIGFGPFIITNKHLFRRNNGTLVVQSLHGVFKVKDTTTLQQHLVDGRDMIIIRMPKDFPPFPQKLKFREPQREERICLVTTNFQTKSMSAMVSDTSCTFPSGDGIFWKHWIQTKDGQCGSPLVSTRDGFIVGIHSASNFTNTNNYFTSVPKNFMELLTNQEAQQWVSGWRLNADSVLWGGHKVFMVKPEEPFQPVKEATQL [S124A], the “area with substrate ECLYFQS” value was 0.11, the “area with substrate EDLYFQS” value was 0.123, the “area with substrate EELYFQS” value came out at 0.0966 and the “area with substrate EILYFQS” value was 0.0833. Further, the “area with substrate EKLYFQS” value amounted to 0.117, the “area with substrate ELLYFQS” value was determined as 0.107, the “area with substrate EMLYFQS” value is 0.122 and the “area with substrate EVLYFQS” value is 0.0973.
As to MGESLFKGPRDYNPISSSICHLTNESDGHTTSLYGIGFGPFIITNKHLFRRNNGTLVVQSLHGVFKVKDTTTLQQHLVDGRDMIIIRMPKDFPPFPQKLKFREPQREERICLVTENFQTKSMSSMVSDTSCTFPSGDGIFWKHWIQTKDGQCGSPLVSTRDGFIVGIHSASNFTNTNNYFTSVPKNFMELLTNQEAQQWVSGWRLNADSVLWGGHKVFMVKPEEPFQPVKEATQL [T115E], the “area with substrate ECLYFQS” value stood at 0.0566, the “area with substrate EDLYFQS” value is 0.124, the “area with substrate EELYFQS” value stood at 0.114 and the “area with substrate EHLYFQS” value came out at 0.132. In addition, the “area with substrate EKLYFQS” value came out at 0.106, the “area with substrate EMLYFQS” value is 0.166, the “area with substrate EPLYFQS” value was 0.138 and the “area with substrate EQLYFQS” value was 0.12. The “area with substrate ERLYFQS” value came to 0.0963, the “area with substrate EWLYFQS” value was 0.0959 and the “area with substrate EYLYFQS” value was 0.129.
As for MGESLFKGPRDYNPISSSICHLTNESDGHTTSLYGIGFGPFIITNKHLFRRNNGTLVVQSLHGVFKVKDTTTLQQHLVDGRDMIIIRMPKDFPPFPQKLKFREPQREERICLQTTNFQTKSMSSMVSDTSCTFPSGDGIFWKHWIQTKDGQCGSPLVSTRDGFIVGIHSASNFTNTNNYFTSVPKNFMELLTNQEAQQWVSGWRLNADSVLWGGHKVFMVKPEEPFQPVKEATQL [V113Q], the “area with substrate ECLYFQS” value stood at 0.072, the “area with substrate EDLYFQS” value amounted to 0.0677, the “area with substrate EHLYFQS” value is 0.113 and the “area with substrate EILYFQS” value amounted to 0.0771. The “area with substrate EKLYFQS” value is 0.0912, the “area with substrate EMLYFQS” value worked out at 0.0751, the “area with substrate EPLYFQS” value came out at 0.061 and the “area with substrate EQLYFQS” value turned out to be 0.0903. Also, the “area with substrate ERLYFQS” value is 0.108, the “area with substrate ETLYFQS” value was 0.092 and the “area with substrate EVLYFQS” value was 0.0747.
In the case of MGESLFKGPRDYNPISSSICHLTNESDGHTTSLYGIGFGPFIITNKHLFRRNNGTLVVQSLHGVFKVKDTTTLQQHLVDGRDMIIIRMPKDFPPFPQKLKFREPQREERICLVTTNFVTKSMSSMVSDTSCTFPSGDGIFWKHWIQTKDGQCGSPLVSTRDGFIVGIHSASNFTNTNNYFTSVPKNFMELLTNQEAQQWVSGWRLNADSVLWGGHKVFMVKPEEPFQPVKEATQL [Q118V], the “area with substrate ECLYFQS” value was determined as 0.0574, the “area with substrate EGLYFQS” value is 0.101, the “area with substrate EILYFQS” value worked out at 0.119 and the “area with substrate EKLYFQS” value worked out at 0.126. The “area with substrate ELLYFQS” value was 0.0905, the “area with substrate EMLYFQS” value is 0.104, the “area with substrate EPLYFQS” value amounted to 0.157 and the “area with substrate ETLYFQS” value came to 0.136. The “area with substrate EVLYFQS” value stood at 0.0882 and the “area with substrate EYLYFQS” value is 0.123.
On to MGESLFKGPRDYNPISSSICHLTNESDGHTTSLYGIGFGPFIITNKHLFRRNNGTLVVQSLHGVFKVKDTTTLQQHLVDGRDMIIIRMPKDFPPFPQKLKFREPQREERICLVTTNFMTKSMSSMVSDTSCTFPSGDGIFWKHWIQTKDGQCGSPLVSTRDGFIVGIHSASNFTNTNNYFTSVPKNFMELLTNQEAQQWVSGWRLNADSVLWGGHKVFMVKPEEPFQPVKEATQL [Q118M], for which the “area with substrate ECLYFQS” value came out at 0.0668, the “area with substrate EELYFQS” value was determined as 0.0844, the “area with substrate EHLYFQS” value amounted to 0.105 and the “area with substrate EILYFQS” value came to 0.101. In addition, the “area with substrate EPLYFQS” value is 0.108, the “area with substrate EQLYFQS” value came to 0.0997, the “area with substrate ERLYFQS” value came out at 0.149 and the “area with substrate ESLYFQS” value worked out at 0.109. For the same variant, the “area with substrate EVLYFQS” value was found to be 0.0847 and the “area with substrate EWLYFQS” value was 0.0876.
In the case of MGESLFKGPRDYNPISSSICHLTNESDGHTTSLYGIGFGPFIITNKHLFRRNNGTLVVQSLHGVFKVKDTTTLQQHLVDGRDMIIIRMPKDFPPFPQKLKFREPQREERICLVTTNFQTKGMSSMVSDTSCTFPSGDGIFWKHWIQTKDGQCGSPLVSTRDGFIVGIHSASNFTNTNNYFTSVPKNFMELLTNQEAQQWVSGWRLNADSVLWGGHKVFMVKPEEPFQPVKEATQL [S121G], the “area with substrate ECLYFQS” value was 0.127, the “area with substrate EELYFQS” value was 0.149, the “area with substrate EGLYFQS” value turned out to be 0.0888 and the “area with substrate EHLYFQS” value was 0.124. Moreover, the “area with substrate EILYFQS” value was 0.105, the “area with substrate EKLYFQS” value was determined as 0.0962, the “area with substrate EMLYFQS” value stood at 0.0982 and the “area with substrate EPLYFQS” value came to 0.0102. The “area with substrate EQLYFQS” value is 0.115, the “area with substrate ERLYFQS” value worked out at 0.105, the “area with substrate ESLYFQS” value amounted to 0.134 and the “area with substrate ETLYFQS” value stood at 0.105. Also, the “area with substrate EVLYFQS” value is 0.159.
MGESLFKGPRDYNPISSSICHLTNESDGHTTSLYGIGFGPFIITNKHLFRRNNGTLVVQSLHGVFKVKDTTTLQQHLVDGRDMIIIRMPKDFPPFPQKLKFREPQREERICLVTTNFQTKSMESMVSDTSCTFPSGDGIFWKHWIQTKDGQCGSPLVSTRDGFIVGIHSASNFTNTNNYFTSVPKNFMELLTNQEAQQWVSGWRLNADSVLWGGHKVFMVKPEEPFQPVKEATQL [S123E]: the “area with substrate ECLYFQS” value came out at 0.103, the “area with substrate EDLYFQS” value was 0.112, the “area with substrate EELYFQS” value stood at 0.111 and the “area with substrate EFLYFQS” value came to 0.104. The “area with substrate EGLYFQS” value turned out to be 0.0937, the “area with substrate EHLYFQS” value was 0.115, the “area with substrate EILYFQS” value amounted to 0.095 and the “area with substrate EKLYFQS” value is 0.0731. Besides, the “area with substrate ELLYFQS” value worked out at 0.0899, the “area with substrate EMLYFQS” value turned out to be 0.105, the “area with substrate EPLYFQS” value was 0.096 and the “area with substrate EQLYFQS” value came to 0.0956. Moreover, the “area with substrate ERLYFQS” value stood at 0.094, the “area with substrate ESLYFQS” value amounted to 0.0889, the “area with substrate ETLYFQS” value came to 0.105 and the “area with substrate EVLYFQS” value was 0.104. The “area with substrate EWLYFQS” value amounted to 0.113.
On to MGESLFKGPRDYNPISSSICHLTNESDGHTTSLYGIGFGPFIITNKHLFRRNNGTLVVQSLHGVFKVKDTTTLQQHLVDGRDMIIIRMPKDFPPFPQKLKFREPQREERICLVTTNFQTKSMGSMVSDTSCTFPSGDGIFWKHWIQTKDGQCGSPLVSTRDGFIVGIHSASNFTNTNNYFTSVPKNFMELLTNQEAQQWVSGWRLNADSVLWGGHKVFMVKPEEPFQPVKEATQL [S123G], for which the “area with substrate ECLYFQS” value stood at 0.0907, the “area with substrate EDLYFQS” value turned out to be 0.141, the “area with substrate EELYFQS” value came to 0.121 and the “area with substrate EHLYFQS” value was 0.145. Moreover, the “area with substrate EILYFQS” value was 0.11, the “area with substrate EKLYFQS” value was 0.154, the “area with substrate EMLYFQS” value came to 0.114 and the “area with substrate EPLYFQS” value is 0.11. Moreover, the “area with substrate EQLYFQS” value was found to be 0.131, the “area with substrate ERLYFQS” value was determined as 0.115, the “area with substrate ESLYFQS” value came out at 0.105 and the “area with substrate ETLYFQS” value is 0.0871. Also, the “area with substrate EVLYFQS” value was 0.105, the “area with substrate EWLYFQS” value came out at 0.0775 and the “area with substrate EYLYFQS” value is 0.106.
